Experimental data published in patent publication US5773569A (Affymax Technologies N.V., priority 1995, dated 1998).
At least one peptide structure holds a part that was inferred or is arguable (an end, a ring closure or a residue). Residues, ends and D or L forms follow the SMILES beside them.

Assays:
[1] = molecular target: T1, truncated human erythropoietin receptor cell line (Homo sapiens, UniProt P19235); details: Tables 20-21; IA = inactive
T1 sequence (P19235 25-468 limits assumed): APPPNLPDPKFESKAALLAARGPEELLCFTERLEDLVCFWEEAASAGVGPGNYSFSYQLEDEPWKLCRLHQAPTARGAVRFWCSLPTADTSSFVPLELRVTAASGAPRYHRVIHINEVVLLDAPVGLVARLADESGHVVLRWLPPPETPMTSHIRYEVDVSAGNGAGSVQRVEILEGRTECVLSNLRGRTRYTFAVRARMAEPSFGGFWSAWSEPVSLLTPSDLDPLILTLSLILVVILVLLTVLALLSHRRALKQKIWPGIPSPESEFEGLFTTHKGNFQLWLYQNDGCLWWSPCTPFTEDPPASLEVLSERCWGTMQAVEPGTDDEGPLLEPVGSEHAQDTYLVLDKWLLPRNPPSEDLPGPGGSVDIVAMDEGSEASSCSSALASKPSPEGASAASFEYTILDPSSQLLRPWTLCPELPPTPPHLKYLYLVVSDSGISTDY

[2] = molecular target: T2, murine receptor (FDC-P1/ER cells) (Mus musculus, UniProt P14753); details: Tables 20-21; IA = inactive
T2 sequence (P14753 25-507): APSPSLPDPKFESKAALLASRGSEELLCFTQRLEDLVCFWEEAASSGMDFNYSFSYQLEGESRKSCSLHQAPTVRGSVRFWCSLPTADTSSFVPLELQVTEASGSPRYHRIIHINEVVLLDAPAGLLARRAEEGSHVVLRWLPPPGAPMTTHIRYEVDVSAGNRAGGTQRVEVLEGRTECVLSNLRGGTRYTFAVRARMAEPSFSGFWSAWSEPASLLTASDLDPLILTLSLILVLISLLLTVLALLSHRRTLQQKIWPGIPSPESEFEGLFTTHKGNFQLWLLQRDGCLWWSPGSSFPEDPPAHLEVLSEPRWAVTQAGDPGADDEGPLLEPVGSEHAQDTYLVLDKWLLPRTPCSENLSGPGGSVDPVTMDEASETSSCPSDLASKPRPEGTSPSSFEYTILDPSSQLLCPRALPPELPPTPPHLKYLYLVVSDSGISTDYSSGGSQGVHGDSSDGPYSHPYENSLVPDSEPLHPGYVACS

[3] = molecular target: T3, extracellular domain of the human erythropoietin receptor (EPO binding protein, EBP) (Homo sapiens, UniProt P19235); assay: Immobilized EBP based [125I]EPO competition binding assay; details: IC50 relative to RWJ61233 (IC50 5 μM), cyclic peptides, COOH terminal amides
T3 construct: made in house
T3 sequence (P19235 25-250 limits assumed): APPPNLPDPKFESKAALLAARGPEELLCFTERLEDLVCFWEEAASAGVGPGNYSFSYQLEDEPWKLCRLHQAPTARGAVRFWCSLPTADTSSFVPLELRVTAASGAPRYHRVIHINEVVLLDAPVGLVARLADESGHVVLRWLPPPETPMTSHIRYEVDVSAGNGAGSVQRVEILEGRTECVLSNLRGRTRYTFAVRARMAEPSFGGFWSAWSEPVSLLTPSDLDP
Description: The iodoacetyl activation chemistry of Sufolink beads (Pierce Chemical Co, Rockford, Ill.) is specific for free thiols and assures that the linkage is not easily reversible. EBP-Sulfolink beads were made as follows: SulfoLink gel suspension (10 ml) was mixed with coupling buffer (40 ml: 50 mM Tris, pH 8.3, 5 mM EDTA) and the gel was allowed to settle. The supernatant was removed and the EBP (0.3-1 mg/ml in coupling buffer) to be bound was added directly to the washed beads. The mixture was rocked gently for 30 minutes at room temperature, and the beads were allowed to settle for 1 hour at room temperature. The supernatant was removed and retained, and the beads were washed twice with 20 ml of coupling buffer. The washes were recovered as well. The beads were then treated with 20 ml of 0.05M cysteine for 30 minutes at room temperature to block unbound sites. Finally, the beads were washed with 50 ml of 1M NaCl, then with 30 ml of PBS, and resuspended in 20 ml of PBS and stored at 4° C. for later use. The amount of EBP which was covalently bound to the beads was determined by comparing the OD280 of the original EBP solution to the total OD280 recovered in the reaction supernatant and the two 20 ml washes.
Binding assays were initiated by the addition of EBP beads (50 μl) to individual reaction tubes. […] Each reaction volume was brought to 500 μl with binding buffer (PBS/0.2% BSA). The tubes were incubated for five hours (a time period experimentally determined as adequate for the establishment of equilibrium) at room temperature with gentle rocking. After five hours, each reaction mixture was passed through a 1 ml pipet tip plugged with glass wool.
Competitive binding analysis assays of candidate peptides were performed as outlined below. Individual peptides were dissolved in DMSO to prepare a stock solution of 1 mM. […] Initial assay points with no added peptide were included in each assay to determine total binding. Binding mixtures were incubated overnight at room temperature with gentle rocking. The beads were then collected using Micro-columns (Isolab, Inc., Akron, Ohio) and washed with 3 mL of wash buffer. The columns containing the washed beads were placed in 12×75 mm glass tubes and bound radioactivity levels were determined using a gamma counter.

EPO-R = molecular target: T4, EPO-R (Homo sapiens, UniProt P19235); assay: ELISA and competition binding on immobilized EPO-R (phage clone and free peptide)
T4 construct: comprised the extracellular domain of the EPO-receptor; thrombin cleavage site (internal); made in house
T4 sequence (P19235 25-250 limits assumed): T3 sequence (P19235 25-250 limits assumed)

SMILES	EPO-ED50 (μM)* truncated human receptor [1] [µM]	EPO-ED50 (μM)* murine receptor [2] [µM]	Relative Binding [3]	Relative Binding ([3]; listed as AF11288)	affinity to BSA and to the anti-receptor antibody by ELISA (EPO-R; controls without receptor)	affinity to EPO-R by ELISA (EPO-R; phage-displayed peptide)
CC(C)C[C@@H]1NC(=O)[C@@H]2CCCN2C(=O)CNC(=O)[C@H](Cc2ccccc2)NC(=O)[C@H](Cc2c[nH]cn2)NC(=O)[C@@H](NC(=O)[C@H](CO)NC(=O)[C@H](Cc2ccc(F)cc2)NC(=O)[C@@H](NC(=O)CNC(=O)CN)[C@@H](C)O)CSSC[C@@H](C(=O)N[C@@H](CCCCN)C(=O)N2CCC[C@H]2C(=O)N[C@@H](CCC(N)=O)C(=O)NCC(=O)NCC(N)=O)NC(=O)[C@H](C(C)C)NC(=O)[C@H](Cc2c[nH]c3ccccc23)NC(=O)[C@H]([C@@H](C)O)NC1=O [RWJ 62020, GGTXSCHFGPLTWVCKPQGG] (HELM PEPTIDE1{G.G.T.[O=C([C@H](Cc1ccc(F)cc1)N[*:1])[*:2]].S.C.H.F.G.P.L.T.W.V.C.K.P.Q.G.G.[am]}$PEPTIDE1,PEPTIDE1,6:R3-15:R3$$$V2.0)	0.1	1.0	8	–	–	–
CC(C)C[C@@H]1NC(=O)[C@@H]2CCCN2C(=O)CNC(=O)[C@H](Cc2ccccc2)NC(=O)[C@H](Cc2c[nH]cn2)NC(=O)[C@@H](NC(=O)[C@H](CO)NC(=O)[C@H](Cc2ccc(O)cc2)NC(=O)[C@@H](NC(=O)CNC(=O)CN)[C@@H](C)O)CSSC[C@@H](C(=O)N[C@@H](CCCCN)C(=O)N2CCC[C@H]2C(=O)N[C@@H](CCC(N)=O)C(=O)NCC(=O)NCC(N)=O)NC(=O)[C@H](C(C)C)NC(=O)[C@H](Cc2ccccc2)NC(=O)[C@H]([C@@H](C)O)NC1=O [RWJ 62145] (HELM PEPTIDE1{G.G.T.Y.S.C.H.F.G.P.L.T.F.V.C.K.P.Q.G.G.[am]}$PEPTIDE1,PEPTIDE1,6:R3-15:R3$$$V2.0)	–	0.25	6	–	–	–
CSCC[C@@H]1NC(=O)[C@H](Cc2c[nH]cn2)NC(=O)[C@@H](NC(=O)[C@H](C)NC(=O)[C@H](Cc2ccc(O)cc2)NC(=O)[C@H](CC(C)C)NC(=O)CNC(=O)CN)CSSC[C@@H](C(=O)N[C@@H](CCC(N)=O)C(=O)N2CCC[C@H]2C(=O)N[C@@H](CC(C)C)C(=O)N[C@@H](CCCNC(=N)N)C(=O)NCC(N)=O)NC(=O)[C@H](C(C)C)NC(=O)[C@H](Cc2c[nH]c3ccccc23)NC(=O)[C@H]([C@@H](C)O)NC(=O)[C@H](CCSC)NC(=O)[C@@H]2CCCN2C(=O)CNC1=O [RWJ 61718]	–	0.1	0.6	0.2	–	–
CC[C@H](C)[C@@H]1NC(=O)[C@H](CCCNC(=N)N)NC(=O)[C@@H](NC(=O)CNC(=O)CN)CSSC[C@@H](C(=O)NCC(=O)NCC(N)=O)NC(=O)[C@H](C(C)C)NC(=O)[C@H](Cc2c[nH]c3ccccc23)NC(=O)[C@H]([C@@H](C)O)NC(=O)[C@H]([C@@H](C)CC)NC(=O)[C@@H]2CCCN2C(=O)CNC1=O [AF11154] (HELM PEPTIDE1{G.G.C.R.I.G.P.I.T.W.V.C.G.G.[am]}$PEPTIDE1,PEPTIDE1,3:R3-12:R3$$$V2.0)	–	–	13	–	low affinities	high affinity
